This assay relates to Ba/F3-FLT3-ITD-F691L cells. To be noted: approximately 2-day treatment.

The source of these data is patent US11136409B2, “Compositions and methods for identification, assessment, prevention, and treatment of AML using USP10 biomarkers and modulators” (Dana-Farber Cancer Institute, Inc., priority 2016, dated 2021).

For `CC1(COc2ccc3c(c2)ncn3-c2ccc3cccc(N4CCC(N)CC4)c3n2)COC1` [crenolanib], the “Potency against F691L mutant versus Ba/F3-FLT3-ITD” value was “rightward shift in the dose-response curve”.
